Values of other authors as cited in patent publication US8894782B2 (priority 2002, dated 2014).

Conditions: animal

| SMILES | carcinogenicity |
| --- | --- |
| CNN [monomethylhydrazine] | confirmed animal carcinogens |
| CN(C)N [unsymmetrical dimethylhydrazine, 1,1-dimethylhydrazine] | confirmed animal carcinogens |
